Experimental data as given in PMC4395284.
These are yes or no findings as the source states them, for the method shown. Binding seen in cells or lysates may run through a third protein. Some binding calls cover weakened binding; strength is not graded here.

Sequences of proteins named here, by UniProt entry; tags and fusion partners are left off. A change or cut given only in a name is not applied to a line headed by its entry. A line that says so, or that is headed by a name, gives the form on record, which may keep a tag or linker. Residues count along the entry.
UniProt O54803: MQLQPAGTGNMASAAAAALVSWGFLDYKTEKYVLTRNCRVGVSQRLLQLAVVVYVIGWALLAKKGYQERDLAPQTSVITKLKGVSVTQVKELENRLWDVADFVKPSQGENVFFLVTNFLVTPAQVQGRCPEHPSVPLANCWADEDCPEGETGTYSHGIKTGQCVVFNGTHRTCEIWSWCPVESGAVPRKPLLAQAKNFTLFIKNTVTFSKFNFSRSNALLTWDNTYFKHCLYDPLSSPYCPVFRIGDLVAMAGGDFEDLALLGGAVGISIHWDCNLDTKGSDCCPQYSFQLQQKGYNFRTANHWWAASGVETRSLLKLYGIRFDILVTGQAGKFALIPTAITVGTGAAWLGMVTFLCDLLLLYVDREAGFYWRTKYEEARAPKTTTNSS
UniProt O15547: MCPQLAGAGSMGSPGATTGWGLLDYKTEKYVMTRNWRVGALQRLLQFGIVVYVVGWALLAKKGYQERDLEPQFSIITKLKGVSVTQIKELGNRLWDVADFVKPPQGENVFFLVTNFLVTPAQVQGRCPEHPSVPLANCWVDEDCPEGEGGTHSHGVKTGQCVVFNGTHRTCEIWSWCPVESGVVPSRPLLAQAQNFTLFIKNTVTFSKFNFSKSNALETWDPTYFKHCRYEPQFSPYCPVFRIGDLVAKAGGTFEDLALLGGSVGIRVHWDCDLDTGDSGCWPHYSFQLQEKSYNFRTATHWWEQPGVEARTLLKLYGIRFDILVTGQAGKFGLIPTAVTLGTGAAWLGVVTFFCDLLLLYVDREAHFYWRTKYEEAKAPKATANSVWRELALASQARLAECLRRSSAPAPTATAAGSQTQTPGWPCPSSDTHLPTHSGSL
EXT-P2X6-myc (extracellular domain of P2X6 fused with c-myc): residues 61-333 of O15547
TM-P2X6-myc (transmembrane TM2 and C terminal region of P2X6 fused with c-myc): residues 334-441 of O15547

Legend:
[1] = biological target: spectrin α2 (mouse (endogenous in hippocampus)) (UniProt P16546); assay: co-IP; nuclear fraction of 8 month-old mouse hippocampus; anti-P2X6, anti-spectrin α2 or anti-SF3A1 antibody or IgG control on MagSi-ProteinG beads, room temperature 1 h, washed three times with PBS; immunoblot
[2] = biological target: T1, splicing factor 3 subunit A1 (SF3A1), mouse hippocampus (mouse (endogenous in hippocampus)) (UniProt Q8K4Z5); assay: as above
T1 sequence: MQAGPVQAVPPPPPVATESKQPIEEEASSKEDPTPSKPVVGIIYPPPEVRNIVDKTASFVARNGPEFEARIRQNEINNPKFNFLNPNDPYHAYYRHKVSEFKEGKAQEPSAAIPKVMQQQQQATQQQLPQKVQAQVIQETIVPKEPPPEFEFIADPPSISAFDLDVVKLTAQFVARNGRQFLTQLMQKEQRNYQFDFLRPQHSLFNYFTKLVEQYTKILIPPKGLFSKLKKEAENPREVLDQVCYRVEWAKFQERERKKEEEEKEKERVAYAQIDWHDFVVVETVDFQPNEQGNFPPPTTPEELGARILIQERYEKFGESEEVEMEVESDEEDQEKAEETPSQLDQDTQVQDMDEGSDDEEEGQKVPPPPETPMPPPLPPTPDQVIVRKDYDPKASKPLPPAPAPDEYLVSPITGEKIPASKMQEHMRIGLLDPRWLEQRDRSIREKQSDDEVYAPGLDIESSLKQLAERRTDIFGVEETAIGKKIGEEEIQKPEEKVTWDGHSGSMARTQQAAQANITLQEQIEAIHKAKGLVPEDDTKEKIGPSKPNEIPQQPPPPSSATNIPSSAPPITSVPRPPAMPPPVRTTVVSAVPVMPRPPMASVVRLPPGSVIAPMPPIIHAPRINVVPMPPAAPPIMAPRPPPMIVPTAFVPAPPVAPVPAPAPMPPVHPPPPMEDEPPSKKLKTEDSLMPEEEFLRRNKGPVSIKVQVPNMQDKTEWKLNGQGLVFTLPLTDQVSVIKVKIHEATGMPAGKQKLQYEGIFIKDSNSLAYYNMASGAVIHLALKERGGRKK

[3] = biological target: P2X6 subunit (native, mouse hippocampus) (mouse (endogenous in hippocampus)) (UniProt O54803); assay: as above
[4] = biological target: EXT-P2X6-myc (extracellular domain of P2X6 fused with c-myc) (human) (UniProt O15547); assay: co-IP; nuclear fraction of N2a cells overexpressing myc-tagged P2X6 constructs, immunoprecipitated with anti-myc antibody or IgG, immunoblot with anti-SF3A1
[5] = biological target: TM-P2X6-myc (transmembrane TM2 and C terminal region of P2X6 fused with c-myc) (human) (UniProt O15547); assay: as above
[6] = biological target: full length P2X6-myc (human) (UniProt O15547); assay: as above

With “P2X6 subunit (native, mouse hippocampus) (from UniProt O54803 1-389)” the binding [1] was “binds” and the binding [2] was “binds”.

In the case of “spectrin α2 (from UniProt P16546 1-2472)”, the binding [3] is reported as “binds”.

B1: splicing factor 3 subunit A1 (SF3A1), mouse hippocampus (protein, UniProt Q8K4Z5 1-791)
chain: T1 sequence
B1 was tested, and the binding [3] was “binds”.

B2: SF3A1 (endogenous in N2a cells) (protein, UniProt Q8K4Z5 1-791)
chain: T1 sequence
In the case of B2, the binding [4] is reported as “binds”, the binding [5] is reported as “no binding” and the binding [6] is reported as “binds”.
